{"source": "the supplement of paper PMC8728848", "binders": {"B1": {"name": "Tachylectin-2 (Tachypleus tridentatus), TAL2_TACTR (protein)", "chain": "VGGESMLRGVYQDKFYQGTYPQNKNDNWLARATLIGKGGWSNFKFLFLSPGGELYGVLNDKIYKGTPPTHDNDNWMGRAKKIGNGGWNQFQFLFFDPNGYLYAVSKDKLYKASPPQSDTDNWIARATEIGSGGWSGFKFLFFHPNGYLYAVHGQQFYKALPPVSNQDNWLARATKIGQGGWDTFKFLFFSSVGTLFGVQGGKFYEDYPPSYAHDNWLARAKLIGNGGWDDFRFLFF"}}, "assay_in_all_cases": "glycan array binding signal (z-score within array); higher = stronger binding", "details_in_all_cases": "glycan notation: IUPAC condensed, linker removed", "key": {"[1]": {"target": "Neu5Ac(a2-3)Gal(b1-3)GalNAc(b1-4)[Neu5Ac(a2-3)]Gal(b1-4)Glc", "how_it_was_run": "(§1)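 Glycan array data were curated from 3228 arrays in the Consortium for Functional Glycomics database and kept only where the protein sequence was available. Glycan names were converted to IUPAC-condensed notation, and columns mapping to the same glycan were averaged. The binding signal is a within-array Z-score, averaged across arrays of the same protein sequence at different concentrations or buffers and across linkers. Negative Z-scores can be read as non-binding.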"}, "[2]": {"target": "Neu5Ac(a2-3)Gal(b1-3)GalNAc6S", "how_it_was_run": "as §1"}, "[3]": {"target": "Neu5Ac(a2-3)Gal(b1-3)GlcNAc", "how_it_was_run": "as §1"}, "[4]": {"target": "Neu5Ac(a2-3)Gal(b1-3)GlcNAc(b1-2)Man(a1-3)[Neu5Ac(a2-3)Gal(b1-3)GlcNAc(b1-2)Man(a1-6)]Man(b1-4)GlcNAc(b1-4)GlcNAc", "how_it_was_run": "as §1"}, "[5]": {"target": "Neu5Ac(a2-3)Gal(b1-3)GlcNAc(b1-3)Gal(b1-3)GlcNAc", "how_it_was_run": "as §1"}, "[6]": {"target": "Neu5Ac(a2-3)Gal(b1-3)GlcNAc(b1-3)Gal(b1-4)GlcNAc", "how_it_was_run": "as §1"}, "[7]": {"target": "Neu5Ac(a2-3)Gal(b1-3)GlcNAc(b1-3)GalNAc", "how_it_was_run": "as §1"}, "[8]": {"target": "Neu5Ac(a2-3)Gal(b1-3)GlcNAc6S", "how_it_was_run": "as §1"}, "[9]": {"target": "Neu5Ac(a2-3)Gal(b1-3)[Fuc(a1-4)]GlcNAc", "how_it_was_run": "as §1"}, "[10]": {"target": "Neu5Ac(a2-3)Gal(b1-3)[Fuc(a1-4)]GlcNAc(b1-3)Gal(b1-3)[Fuc(a1-4)]GlcNAc", "how_it_was_run": "as §1"}, "[11]": {"target": "Neu5Ac(a2-3)Gal(b1-3)[Fuc(a1-4)]GlcNAc(b1-3)Gal(b1-4)[Fuc(a1-3)]GlcNAc", "how_it_was_run": "as §1"}, "[12]": {"target": "Neu5Ac(a2-3)Gal(b1-3)[Neu5Ac(a2-3)Gal(b1-4)]GlcNAc", "how_it_was_run": "as §1"}, "[13]": {"target": "Neu5Ac(a2-3)Gal(b1-3)[Neu5Ac(a2-6)]GalNAc", "how_it_was_run": "as §1"}, "Neu5Ac(a2-3)Gal(b1-4)Glc": {"target": "Neu5Ac(a2-3)Gal(b1-4)Glc", "how_it_was_run": "as §1"}, "[14]": {"target": "Neu5Ac(a2-3)Gal(b1-4)GlcNAc", "how_it_was_run": "as §1"}, "[15]": {"target": "Neu5Ac(a2-3)Gal(b1-4)GlcNAc(b1-2)Man(a1-3)[GlcNAc(b1-2)Man(b1-4)GlcNAc(b1-2)Man(a1-6)]Man(b1-4)GlcNAc(b1-4)GlcNAc", "how_it_was_run": "as §1"}, "[16]": {"target": "Neu5Ac(a2-3)Gal(b1-4)GlcNAc(b1-2)Man(a1-3)[Neu5Ac(a2-6)Gal(b1-4)GlcNAc(b1-2)Man(a1-6)]Man(b1-4)GlcNAc(b1-4)GlcNAc", "how_it_was_run": "as §1"}, "[17]": {"target": "Neu5Ac(a2-3)Gal(b1-4)GlcNAc(b1-3)Gal(b1-3)GlcNAc", "how_it_was_run": "as §1"}, "[18]": {"target": "Neu5Ac(a2-3)Gal(b1-4)GlcNAc(b1-3)Gal(b1-4)GlcNAc", "how_it_was_run": "as §1"}, "[19]": {"target": "Neu5Ac(a2-3)Gal(b1-4)GlcNAc(b1-3)Gal(b1-4)GlcNAc(b1-3)Gal(b1-4)GlcNAc", "how_it_was_run": "as §1"}, "[20]": {"target": "Neu5Ac(a2-3)Gal(b1-4)GlcNAc(b1-3)Gal(b1-4)[Fuc(a1-3)]GlcNAc", "how_it_was_run": "as §1"}, "[21]": {"target": "Neu5Ac(a2-3)Gal(b1-4)GlcNAc(b1-3)GalNAc", "how_it_was_run": "as §1"}, "[22]": {"target": "Neu5Ac(a2-3)Gal(b1-4)GlcNAc(b1-6)[Gal(b1-3)]GalNAc", "how_it_was_run": "as §1"}, "[23]": {"target": "Neu5Ac(a2-3)Gal(b1-4)GlcNAc(b1-6)[Neu5Ac(a2-3)Gal(b1-3)]GalNAc", "how_it_was_run": "as §1"}, "[24]": {"target": "Neu5Ac(a2-3)Gal(b1-4)GlcNAc6S", "how_it_was_run": "as §1"}, "[25]": {"target": "Neu5Ac(a2-3)Gal(b1-4)[Fuc(a1-3)]GlcNAc", "how_it_was_run": "as §1"}, "[26]": {"target": "Neu5Ac(a2-3)Gal(b1-4)[Fuc(a1-3)]GlcNAc(b1-3)Gal", "how_it_was_run": "as §1"}, "[27]": {"target": "Neu5Ac(a2-3)Gal(b1-4)[Fuc(a1-3)]GlcNAc(b1-3)Gal(b1-4)GlcNAc", "how_it_was_run": "as §1"}, "[28]": {"target": "Neu5Ac(a2-3)Gal(b1-4)[Fuc(a1-3)]GlcNAc(b1-3)Gal(b1-4)[Fuc(a1-3)]GlcNAc(b1-3)Gal(b1-4)[Fuc(a1-3)]GlcNAc", "how_it_was_run": "as §1"}, "[29]": {"target": "Neu5Ac(a2-3)Gal(b1-4)[Fuc(a1-3)]GlcNAc(b1-3)GalNAc", "how_it_was_run": "as §1"}, "[30]": {"target": "Neu5Ac(a2-3)Gal(b1-4)[Fuc(a1-3)]GlcNAc(b1-6)[Gal(b1-3)]GalNAc", "how_it_was_run": "as §1"}, "[31]": {"target": "Neu5Ac(a2-3)Gal(b1-4)[Fuc(a1-3)]GlcNAc(b1-6)[Neu5Ac(a2-3)Gal(b1-3)]GalNAc", "how_it_was_run": "as §1"}, "[32]": {"target": "Neu5Ac(a2-3)Gal(b1-4)[Fuc(a1-3)]GlcNAc6S", "how_it_was_run": "as §1"}, "[33]": {"target": "Neu5Ac(a2-3)Gal6S(b1-4)GlcNAc", "how_it_was_run": "as §1"}, "[34]": {"target": "Neu5Ac(a2-3)Gal6S(b1-4)[Fuc(a1-3)]GlcNAc", "how_it_was_run": "as §1"}, "Neu5Ac(a2-3)GalNAc": {"target": "Neu5Ac(a2-3)GalNAc", "how_it_was_run": "as §1"}, "[35]": {"target": "Neu5Ac(a2-3)GalNAc(b1-4)GlcNAc", "how_it_was_run": "as §1"}, "[36]": {"target": "Neu5Ac(a2-3)[GalNAc(b1-4)]Gal(b1-4)Glc", "how_it_was_run": "as §1"}, "[37]": {"target": "Neu5Ac(a2-3)[GalNAc(b1-4)]Gal(b1-4)GlcNAc", "how_it_was_run": "as §1"}, "[38]": {"target": "Neu5Ac(a2-3)[GalNAc(b1-4)]Gal(b1-4)GlcNAc(b1-3)GalNAc", "how_it_was_run": "as §1"}, "[39]": {"target": "Neu5Ac(a2-3)[Neu5Ac(a2-6)]GalNAc", "how_it_was_run": "as §1"}, "Neu5Ac(a2-6)Gal": {"target": "Neu5Ac(a2-6)Gal", "how_it_was_run": "as §1"}}, "note": "This is one part of the list."}
{"binder": "B1", "values": [{"measurement": "glycan array binding signal (z-score)", "setting": "[1]", "result": -0.093}, {"measurement": "glycan array binding signal (z-score)", "setting": "[2]", "result": -0.226}, {"measurement": "glycan array binding signal (z-score)", "setting": "[3]", "result": -0.313}, {"measurement": "glycan array binding signal (z-score)", "setting": "[4]", "result": -0.303}, {"measurement": "glycan array binding signal (z-score)", "setting": "[5]", "result": -0.543}, {"measurement": "glycan array binding signal (z-score)", "setting": "[6]", "result": -0.296}, {"measurement": "glycan array binding signal (z-score)", "setting": "[7]", "result": -0.294}, {"measurement": "glycan array binding signal (z-score)", "setting": "[8]", "result": -0.057}, {"measurement": "glycan array binding signal (z-score)", "setting": "[9]", "result": -0.302}, {"measurement": "glycan array binding signal (z-score)", "setting": "[10]", "result": -0.295}, {"measurement": "glycan array binding signal (z-score)", "setting": "[11]", "result": -0.362}, {"measurement": "glycan array binding signal (z-score)", "setting": "[12]", "result": -0.319}, {"measurement": "glycan array binding signal (z-score)", "setting": "[13]", "result": -0.321}, {"measurement": "glycan array binding signal (z-score)", "setting": "Neu5Ac(a2-3)Gal(b1-4)Glc", "result": -0.324}, {"measurement": "glycan array binding signal (z-score)", "setting": "[14]", "result": -0.374}, {"measurement": "glycan array binding signal (z-score)", "setting": "[15]", "result": -0.298}, {"measurement": "glycan array binding signal (z-score)", "setting": "[16]", "result": -0.326}, {"measurement": "glycan array binding signal (z-score)", "setting": "[17]", "result": -0.256}, {"measurement": "glycan array binding signal (z-score)", "setting": "[18]", "result": -0.086}, {"measurement": "glycan array binding signal (z-score)", "setting": "[19]", "result": -0.366}, {"measurement": "glycan array binding signal (z-score)", "setting": "[20]", "result": -0.429}, {"measurement": "glycan array binding signal (z-score)", "setting": "[21]", "result": -0.295}, {"measurement": "glycan array binding signal (z-score)", "setting": "[22]", "result": -0.037}, {"measurement": "glycan array binding signal (z-score)", "setting": "[23]", "result": -0.197}, {"measurement": "glycan array binding signal (z-score)", "setting": "[24]", "result": -0.232}, {"measurement": "glycan array binding signal (z-score)", "setting": "[25]", "result": -0.257}, {"measurement": "glycan array binding signal (z-score)", "setting": "[26]", "result": -0.301}, {"measurement": "glycan array binding signal (z-score)", "setting": "[27]", "result": -0.31}, {"measurement": "glycan array binding signal (z-score)", "setting": "[28]", "result": -0.124}, {"measurement": "glycan array binding signal (z-score)", "setting": "[29]", "result": -0.266}, {"measurement": "glycan array binding signal (z-score)", "setting": "[30]", "result": -0.301}, {"measurement": "glycan array binding signal (z-score)", "setting": "[31]", "result": -0.291}, {"measurement": "glycan array binding signal (z-score)", "setting": "[32]", "result": -0.281}, {"measurement": "glycan array binding signal (z-score)", "setting": "[33]", "result": -0.198}, {"measurement": "glycan array binding signal (z-score)", "setting": "[34]", "result": -0.328}, {"measurement": "glycan array binding signal (z-score)", "setting": "Neu5Ac(a2-3)GalNAc", "result": -0.361}, {"measurement": "glycan array binding signal (z-score)", "setting": "[35]", "result": -0.263}, {"measurement": "glycan array binding signal (z-score)", "setting": "[36]", "result": -0.428}, {"measurement": "glycan array binding signal (z-score)", "setting": "[37]", "result": -0.385}, {"measurement": "glycan array binding signal (z-score)", "setting": "[38]", "result": -0.284}, {"measurement": "glycan array binding signal (z-score)", "setting": "[39]", "result": -0.11}, {"measurement": "glycan array binding signal (z-score)", "setting": "Neu5Ac(a2-6)Gal", "result": -0.213}]}
